Measured values from PubChem BioAssay.
This list was built around the results that the source calls inconclusive (neither active nor inactive); the mix of calls is not that of the screen. Calls of active or inactive are those of the source.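 Rule for the calls, unless noted: active = thallium flux slope more than 3 SD above or below the plate's solvent-only control mean, mostly below; inconclusive = the two repeat wells disagreed; inactive = no significant shift from solvent-only controls.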

Experiments:
[1] = molecular target: Solute carrier family 12 member 5 (Homo sapiens) (UniProt Q9H2X9); assay: retest of KCC2 transport modulation, ouabain-free – cell-based, HEK293 KCC2, thallium flux, FluoZin2, secondary assay 2, confirmation (AID 1715); conditions: HEK293-KCC2, thallium flux FluoZin2 fluorescence; at 10 µM; actives lie on both sides; F/F0 rise rate, 10–20 s post-thallium;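 note: raw slope with 0.1% DMSO as baseline and bumetanide as block control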
UniProt Q9H2X9, sequence (Q9H2X9 whole entry, looked up): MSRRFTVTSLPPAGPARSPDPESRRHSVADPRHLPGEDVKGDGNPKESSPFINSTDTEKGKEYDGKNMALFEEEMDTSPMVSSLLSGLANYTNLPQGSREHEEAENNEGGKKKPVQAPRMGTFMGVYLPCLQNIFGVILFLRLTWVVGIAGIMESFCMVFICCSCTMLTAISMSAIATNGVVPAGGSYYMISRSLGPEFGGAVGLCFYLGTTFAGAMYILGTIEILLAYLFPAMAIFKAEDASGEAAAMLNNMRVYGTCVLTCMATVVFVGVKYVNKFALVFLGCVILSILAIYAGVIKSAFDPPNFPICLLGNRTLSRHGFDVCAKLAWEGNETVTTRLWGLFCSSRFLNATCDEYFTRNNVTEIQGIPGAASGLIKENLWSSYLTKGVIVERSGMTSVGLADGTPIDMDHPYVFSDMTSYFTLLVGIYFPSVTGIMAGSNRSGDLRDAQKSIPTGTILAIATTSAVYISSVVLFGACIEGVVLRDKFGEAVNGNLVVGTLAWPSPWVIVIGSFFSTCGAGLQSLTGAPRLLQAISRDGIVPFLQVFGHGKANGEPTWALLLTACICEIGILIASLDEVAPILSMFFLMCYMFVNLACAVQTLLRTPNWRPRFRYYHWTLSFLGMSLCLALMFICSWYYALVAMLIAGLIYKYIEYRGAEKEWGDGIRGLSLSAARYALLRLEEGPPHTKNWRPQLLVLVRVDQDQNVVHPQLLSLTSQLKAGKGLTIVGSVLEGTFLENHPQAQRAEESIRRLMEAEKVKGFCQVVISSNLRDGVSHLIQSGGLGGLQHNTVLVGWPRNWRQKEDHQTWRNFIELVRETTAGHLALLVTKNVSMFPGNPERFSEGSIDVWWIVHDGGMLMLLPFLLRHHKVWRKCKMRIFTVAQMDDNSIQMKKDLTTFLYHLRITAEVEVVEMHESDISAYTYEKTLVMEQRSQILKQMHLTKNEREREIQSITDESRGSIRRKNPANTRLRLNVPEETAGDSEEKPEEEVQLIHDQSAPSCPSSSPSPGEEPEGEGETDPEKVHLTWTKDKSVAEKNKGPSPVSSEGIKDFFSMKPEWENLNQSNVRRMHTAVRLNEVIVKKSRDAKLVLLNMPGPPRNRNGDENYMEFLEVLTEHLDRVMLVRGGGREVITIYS

[2] = compound effects on native HEK Tl+ uptake – HEK cells, counterscreen 1, counter-screen for KCC2 modulator project, confirmation (AID 1716;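 active = thallium flux rate significantly above the same plate's solvent-only control wells, beyond their mean plus 3 SD; inconclusive = the two replicate wells gave conflicting results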); conditions: HEK293 parental cells, thallium flux FluoZin2, ouabain; at 10 µM; baseline-ratio fluorescence slope, 10–20 s after thallium
[3] = molecular target: Solute carrier family 12 member 5 (Homo sapiens) (UniProt Q9H2X9); assay: modulation of KCC2 thallium flux in HEK cells – cell-based, ouabain, retest, confirmation (AID 1717;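 active = thallium flux slope beyond 3 SD from same-plate DMSO control mean in most replicates, usually higher, sometimes lower; inconclusive = repeat tests gave conflicting results; inactive = no significant difference from controls in most replicates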;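 note: slope of initial-normalized fluorescence between seconds 10 and 20 after thallium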); conditions: HEK293-KCC2, thallium flux FluoZin2 fluorescence, at 10 µM, bidirectional: low = inhibitor, high = activator

| Compound | normalized thallium flux [1] | thallium flux rate (normalised fluorescence) [2] | raw Tl+ flux slope (below DMSO = inhibition, above = activation) [3] |
| --- | --- | --- | --- |
| Cc1cc(C(=O)CCC(=O)N2CCN(S(=O)(=O)c3cccs3)CC2)c(C)s1 | inconclusive: 0.0268 | inconclusive: 0.00625 | – |
| NC(=O)CC(NC(=O)Cc1ccc(Br)cc1)c1ccc(NCCc2ccc(F)cc2)c([N+](=O)[O-])c1 (stereo not given) | inconclusive: 0.0263 | inconclusive: 0.00664 | inactive: 0.0143 |
| Cc1cccnc1CN1CCN(C(=O)c2cc(COc3ccc4ncccc4c3)on2)CC1 | inconclusive: 0.029 | inactive: 0.00745 | – |
| O=C(CSc1nnc(-c2ccco2)n1Cc1ccccc1)c1ccccc1 | inconclusive: 0.0288 | inconclusive: 0.00629 | – |
| CCc1ccc(NC(=O)c2c(Cl)nc(C)c(Cl)c2C)cc1 | active: 0.0251 | inconclusive: 0.00856 | – |
| O=C(NC(=S)NCCC1=CCCCC1)c1ccco1 | active: 0.0461 | inconclusive: 0.0761 | – |
| O=C(CSc1nc(-c2ccccc2)nc2ccc(F)cc12)Nc1cccc(C(=O)O)c1 | inconclusive: 0.0396 | active: 0.0476 | – |
| CCOc1ccccc1C(=O)NC1CC2CCCC(C1)N2Cc1nnnn1Cc1ccco1 (stereo not given) | inactive: 0.0311 | inactive: 0.00593 | inconclusive: 0.0168 |
| Cc1ncccc1C(=O)N1CCCC(CNC(=O)c2ccc(-c3ccccc3)cc2)C1 (stereo not given) | inconclusive: 0.0285 | inactive: 0.00811 | – |
| O=C(CSc1nnc(-c2ccccc2Br)o1)N1CCc2ccccc2C1 | active: 0.0214 | inconclusive: 0.0062 | active: 0.0108 |
| COc1ccc(-c2cc(CCCC(=O)NCCc3ccccc3)no2)cc1 | inconclusive: 0.0295 | inactive: 0.00702 | – |
| Cc1ccc(C(C)C)c(OCc2n[nH]c(=S)o2)c1 | inconclusive: 0.0377 | active: 0.0343 | – |
| COc1ccccc1C(=O)Nc1c2c(nn1-c1cccc(C)c1C)CS(=O)C2 (stereo not given) | inactive: 0.0284 | inconclusive: 0.00635 | – |
| O=C(NC(=S)Nc1ccccc1N1CCCC1)c1cccs1 | inconclusive: 0.0417 | inconclusive: 0.0667 | active: 0.0871 |
| CC(C)n1nc(C(=O)Nc2nc3ccccc3[nH]2)c2ccccc2c1=O | active: 0.0246 | inconclusive: 0.0062 | inactive: 0.0135 |
| CCCn1c(SCC(=O)N2c3ccccc3CC2C)nnc1-c1ccco1 (stereo not given) | inactive: 0.0349 | inconclusive: 0.00626 | – |
| CCN(CC)c1ccc2c(C)c(-c3ccc(N)cc3)c(=O)oc2c1 | inconclusive: 0.0287 | inactive: 0.00647 | – |
| CC(=O)c1c(C)cc(C)c(CSc2nnc(-c3ccco3)o2)c1C | inconclusive: 0.0274 | inconclusive: 0.00668 | – |
| CC1CCC/C(=N\NC(=S)NCc2ccccc2)C1 (stereo not given) | inactive: 0.0267 | inconclusive: 0.00859 | – |

| Compound | normalized thallium flux [1] | thallium flux rate (normalised fluorescence) [2] | raw Tl+ flux slope (below DMSO = inhibition, above = activation) [3] |
| --- | --- | --- | --- |
| O=C(N/N=C\c1ccccn1)c1ccccc1O | inconclusive: 0.0357 | active: 0.015 | – |
| CC(CCc1ccccc1)NC(=O)C(Cc1ccccc1)NS(=O)(=O)c1cccs1 (stereo not given) | inconclusive: 0.026 | inconclusive: 0.00617 | – |
| O=C(NNC(=S)Nc1ccc(Br)cc1)c1ccc(N2CCOCC2)c([N+](=O)[O-])c1 | inactive: 0.0306 | inconclusive: 0.00656 | – |
| O=C(NC(=S)Nc1ccccc1[N+](=O)[O-])c1ccccc1 | inconclusive: 0.0381 | – | – |
| O=C(NCC1OCCc2ccccc21)c1cc(COc2c(F)cccc2F)on1 (stereo not given) | inconclusive: 0.0309 | inconclusive: 0.00651 | – |
| CC(=O)c1ccc(C(=O)Nc2nnc(-c3ccc(Cl)cc3)o2)cc1 | inconclusive: 0.0345 | active: 0.0452 | – |
| N#Cc1c2n(c3c(=O)n(Cc4ccc(Cl)cc4)cnc13)CCCCC2 | active: 0.0234 | inconclusive: 0.00831 | – |
| CC(C)(C)C(=O)NC(=S)NNC(=O)C(c1ccccc1)c1ccccc1 | inactive: 0.041 | inconclusive: 0.0071 | – |
| Oc1ccc(Cl)cc1C1=NNC(c2cccs2)C1 (stereo not given) | inconclusive: 0.0377 | active: 0.0612 | – |
| O=C(Cc1csc(-c2ccccc2)n1)NCc1cccs1 | inconclusive: 0.025 | inconclusive: 0.00551 | – |
| CCc1ccc(Nc2nnc(SCC(=O)NC(=O)c3cccn3C)s2)cc1 | active: 0.025 | inconclusive: 0.00625 | – |
| O=C(CSc1ncnc2c1oc1ccccc12)NC1CCCCC1 | inconclusive: 0.0294 | inactive: 0.00672 | – |
| Cc1c(Cl)cccc1NC(=S)NNc1ncc(C(F)(F)F)cc1Cl | inconclusive: 0.0374 | active: 0.0178 | – |
| CC(C)Oc1ccccc1OCCCOc1cccc2cccnc12 | inconclusive: 0.0261 | inactive: 0.00637 | – |
| Cc1ccc(Cn2nnc3c(=O)n(CC(=O)NCc4ccco4)cnc32)cc1 | inconclusive: 0.0264 | inconclusive: 0.0085 | active: 0.0148 |
| O=C(CSc1nnc(Cc2ccccc2)o1)c1cc(F)ccc1F | active: 0.0199 | inconclusive: 0.00677 | – |
| Brc1ccccc1-c1nnc2sc(Cc3ccccc3)nn12 | inconclusive: 0.0238 | inconclusive: 0.00608 | – |
| CCOC(=O)c1c(N/N=C/c2ccncc2)n[nH]c1C | inactive: 0.0301 | inconclusive: 0.00665 | inactive: 0.0164 |
